About 14,000 (4.5%) of roughly 310,000 compounds showed an effect of 50% or more. Effects have a minus sign here. The list shows a part of the results.
target: human ether-à-go-go-related gene (hERG) potassium channel (human, UniProt Q12809); assay: primary screen, population patch clamp on CHO cells stably expressing hERG
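Note: peak tail current of the secondary pulse compared with the same well before compound.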

human ether-à-go-go-related gene (hERG) potassium channel, sequence (Q12809 whole entry, looked up): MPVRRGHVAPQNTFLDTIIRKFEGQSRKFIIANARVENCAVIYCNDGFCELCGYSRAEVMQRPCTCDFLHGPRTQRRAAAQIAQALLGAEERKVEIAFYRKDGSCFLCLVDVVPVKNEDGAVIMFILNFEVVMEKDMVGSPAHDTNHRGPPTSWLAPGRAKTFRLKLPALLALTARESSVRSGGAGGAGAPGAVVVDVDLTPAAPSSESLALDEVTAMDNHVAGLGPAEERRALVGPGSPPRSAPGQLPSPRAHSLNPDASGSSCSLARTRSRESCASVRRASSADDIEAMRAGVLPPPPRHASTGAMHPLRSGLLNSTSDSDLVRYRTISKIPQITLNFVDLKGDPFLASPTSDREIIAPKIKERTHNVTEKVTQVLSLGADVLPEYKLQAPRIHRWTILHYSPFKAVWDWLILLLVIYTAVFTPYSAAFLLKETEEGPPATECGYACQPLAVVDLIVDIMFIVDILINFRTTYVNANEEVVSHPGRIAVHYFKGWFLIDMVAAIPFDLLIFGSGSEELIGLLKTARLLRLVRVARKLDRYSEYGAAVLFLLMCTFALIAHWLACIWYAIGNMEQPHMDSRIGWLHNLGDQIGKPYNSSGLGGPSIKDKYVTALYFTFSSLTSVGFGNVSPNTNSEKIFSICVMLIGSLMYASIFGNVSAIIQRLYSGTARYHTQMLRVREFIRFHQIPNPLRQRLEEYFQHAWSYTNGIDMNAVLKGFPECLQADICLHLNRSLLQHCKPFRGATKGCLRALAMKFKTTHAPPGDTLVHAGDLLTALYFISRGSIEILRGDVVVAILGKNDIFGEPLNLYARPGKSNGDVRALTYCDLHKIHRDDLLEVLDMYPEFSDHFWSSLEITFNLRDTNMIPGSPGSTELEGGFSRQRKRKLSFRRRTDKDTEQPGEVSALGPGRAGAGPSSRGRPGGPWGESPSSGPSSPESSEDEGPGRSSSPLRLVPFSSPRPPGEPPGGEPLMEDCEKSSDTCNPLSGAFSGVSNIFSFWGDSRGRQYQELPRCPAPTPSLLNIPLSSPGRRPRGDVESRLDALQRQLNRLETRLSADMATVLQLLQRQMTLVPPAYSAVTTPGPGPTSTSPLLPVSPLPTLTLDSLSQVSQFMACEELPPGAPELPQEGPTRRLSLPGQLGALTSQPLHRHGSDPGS

| Structure (SMILES) | hERG current change (%, negative = inhibition) at 10uM [%] |
| --- | --- |
| CSCC[C@H](NC(=O)c1cccnc1)c1nnc2ccccn12 | 9.71 |
| COc1ccc(CNC(=O)NC2CCCCC2)cc1 | 2.13 |
| COCCN(C(=O)COC(=O)Cc1ccccc1)c1c(N)n(Cc2ccccc2)c(=O)[nH]c1=O | 15.7 |
| O=C(COc1ccc(Br)cc1Br)NC(=S)Nc1cccc(CO)c1 | 5.84 |
| CCCCOCCCNC(=O)C1c2ccccc2Oc2ccccc21 | 8.13 |
| Fc1ccc(C2=CCN(C(c3cccs3)c3nnnn3CCc3ccccc3)CC2)cc1 (stereo not shown) | -0.341 |
| COc1ccc([C@H]2CC(=O)C=C(c3ccc4ccccc4c3)C2)cc1OC | 13.9 |
| Cc1cc(C)c(NC(=O)CN2CCCCCC2)c(C)c1 | -7.47 |
| COc1ccc(NC(=O)CSc2ccc3c(c2)OCCO3)cc1OC | 15 |
| Cc1ccc(CNC(=O)CNS(=O)(=O)c2ccc3c(c2)C(C)(C)C(=O)N3C)cc1 | -3.42 |
| CCN(CC(=O)Nc1c(F)cccc1F)C(=O)CCOc1ccc(C)cc1 | -2.71 |
| COC(=O)c1sccc1NC(=O)Nc1cccc(Cl)c1Cl | 10.9 |
| CCC1CCCCN1CCCNC(=O)C1CCCN(c2ncnc3c2nc2n3CCCCC2)C1 (stereo not shown) | -0.0638 |
| CC(C)(C)NC(=O)NC(=O)COC(=O)COc1ccc2c(c1)CCC2 | 0.441 |
| CC12CN3CCN(CC(C3)/C1=N/NC(=O)Nc1ccccc1)C2 | 14.7 |
| O=S(=O)(NCC(c1cccnc1)N1CCN(Cc2ccccc2)CC1)c1ccccc1 (stereo not shown) | -68.9 |
| Cc1c(C(=O)[O-])oc2c1C(O)CC(C)(C)C2.[Na+] (stereo not shown) | 9.51 |
| NC(=O)Cn1c(=O)oc2ccccc21 | 14.1 |
| O=C(CSC(=S)N1CCOCC1)c1cc(Br)cc(Br)c1O | -17.3 |
| CCCCN(Cc1ccccc1)C(=O)c1cnc2n(c1=O)CCS2 | -0.608 |
| CN1CCC(NC(=O)c2cccc(Oc3ccccc3)c2)CC1 | -8.93 |
| CC1CCCC(NC(=O)CCn2c(=S)oc3ccccc32)C1C (stereo not shown) | 15.8 |
| Cc1occc1C(=O)N/N=C/c1ccc[nH]1 | 12.9 |

| Structure (SMILES) | hERG current change (%, negative = inhibition) at 10uM [%] |
| --- | --- |
| CCOC(=O)CC1CCCCN1Cc1cn(C)nc1-c1ccc2c(c1)OCCO2 (stereo not shown) | -11.2 |
| CCOC(=O)c1cnc(SCC(=O)N2CCc3ccccc32)nc1N | 1.07 |
| O=c1oc2ccccc2cc1-c1csc(Cc2nc(-c3ccc(Br)cc3)cs2)n1 | -1.64 |
| O=S1(=O)CCN(Cc2ccccc2C(F)(F)F)CC1 | 15.4 |
| COCCCNC(=O)c1cc2c(-c3cccc(OC)c3)nn(C)c2s1 | -5.59 |
| Cc1cc(NC(=O)C(C)C)ncc1NC(=O)Cc1ccccc1 | 12.3 |
| Cc1ccc(C(=O)CSc2ncnc3sc4c(c23)CCCC4)cc1 | -0.316 |
| COC(=O)N1CCN(c2ccc(OC)cc2)CC1 | 4.33 |
| COc1ccc(C2CC(=O)N(C)c3ccccc3S2)cc1 (stereo not shown) | -12.9 |
| CC(C)Oc1ccc(C(=O)OC(C)C(=O)NC2CCCCC2C)cc1 (stereo not shown) | 5.69 |
| CCN(CCn1cccn1)C(=O)CC1C(=O)NCCN1CC1CCCCC1 (stereo not shown) | 15.4 |
| CSc1cccc(NC(=O)CSc2nc3ccccc3o2)c1 | -0.335 |
| COc1cc(OC)c(N(C)S(=O)(=O)c2cccc(C(=O)OCC(=O)NCc3ccco3)c2)cc1Cl | -6.99 |
| COCCn1c(SCC(=O)NCc2ccc(F)cc2)nc2ccccc21 | -27.8 |
| CCOC(=O)C1=C(COC(=O)/C=C/c2ccccc2F)NC(=O)NC1C (stereo not shown) | 2.58 |
| O=C(COc1ccccc1)NCC(=O)N1CCCCCC1 | 7.21 |
| Cc1ccc2nc(C)cc(C(=O)N3CCCC(N4CCN(c5ccccc5C)CC4)C3)c2c1 (stereo not shown) | -42.7 |
| O=C(c1ccc2c(c1)OCO2)C1CCCN(Cc2cc(F)ccc2-n2cccn2)C1 (stereo not shown) | -74.9 |
| O=C(N/N=C/c1cc(Cl)cc(Cl)c1O)c1ccncc1 | -12.1 |
| O=c1c2ccccc2nc2oc3ccccc3n12 | 0.394 |
| CCOC(=O)C1CCN(C(=O)c2cc(S(=O)(=O)N3CCOCC3)c(Cl)cc2Cl)CC1 | -50.1 |
| O=C(Nc1ccc(N2CCCCC2)c(Cl)c1)c1cccnc1 | 0.712 |
| CC1c2cc3c(cc2CCN1C(=O)c1cccc(Cl)c1)OCCCO3 (stereo not shown) | -15.2 |

| Structure (SMILES) | hERG current change (%, negative = inhibition) at 10uM [%] |
| --- | --- |
| CCOC(=O)c1c(CN2CCCCC2)n(C)c2ccc(OC)c(S(=O)(=O)c3ccccc3)c12 | -47.2 |
| COc1cccc(NC(=O)COC(=O)c2ccco2)c1 | 9.28 |
| COc1cc(C(=O)CSc2nccn2C)cc(OC)c1OC | 25.5 |
| CCOc1ccc(C(=O)NCC(=O)N2CCc3ccccc3C2)cc1OCC | 4.5 |
| Cc1nc(NC(=O)/C=C/c2ccccc2)n[nH]1 | 10.1 |
| Cc1ccc(CNC(=O)c2ccc(CS(=O)Cc3cccc(Cl)c3)o2)cc1 (stereo not shown) | -21.5 |
| O=C1/C(=C\c2ccco2)SC(=S)N1Cc1ccccc1 | 10.8 |
| Cc1ccnc(NC(=S)NC(=O)/C=C/c2ccccc2)c1 | 4.52 |
| CC(=O)N1CCN(c2ccccc2NC(=O)c2cccs2)CC1 | -43.8 |
| Cc1nc2c(ccc3c2ccc2nc(C)sc23)s1 | 14.2 |
| Cn1c(=O)[nH]c(=O)c2c1nc1n2CCN1Cc1ccccc1 | 14.7 |
| CC(C)Cn1c(N)c(C(=O)CSc2nc3ccccc3c(=O)n2CCCN2CCOCC2)c(=O)n(C)c1=O | -22.2 |
| CC(O)c1nc2ccccc2n1CC(=O)N1CCN(c2ccccc2)CC1 (stereo not shown) | 18 |
| CCC(C)[C@H]1CNCCN1CCCc1cc(OC)c(OC)c(OC)c1 (stereo partly shown) | 4.12 |
| Cc1nn(CC(=O)c2ccc(Cl)s2)c(C)c1[N+](=O)[O-] | -1.58 |
| Cc1ccc(NCc2nnc(SCC(=O)Nc3nnc(C)s3)n2C)cc1 | -1.72 |
| CCCCn1nc(-c2ccccc2)c2nc3ccccc3nc21 | 5.86 |
| CCCOc1ccc(S(=O)(=O)NCCN2CCOCC2)c2ccccc12 | -23.3 |
| O=C(Nc1cc(S(=O)(=O)N2CCOCC2)ccc1N1CCOCC1)c1ccc(S(=O)(=O)N2CCCCC2)cc1 | -1.72 |
| Cc1ccc(C(=O)N/N=C\C2CC=CCC2)cc1[N+](=O)[O-] (stereo not shown) | -4.86 |
| Cc1ccc(CCN2CC(C(=O)NCCN3CCOCC3)CC2=O)cc1 (stereo not shown) | 11.9 |
| COc1ccc(N(C(=O)c2ccco2)C(C(=O)NC2CCCC2)c2ccco2)cc1OC (stereo not shown) | 8.03 |
| COc1ccc(OC)c(NS(=O)(=O)c2ccc(-c3coc(C)n3)cc2)c1 | 0.503 |

| Structure (SMILES) | hERG current change (%, negative = inhibition) at 10uM [%] |
| --- | --- |
| CN(C)c1ccc(P(=O)(OC2CCCCC2)C(O)c2ccncc2)cc1 (stereo not shown) | 11.2 |
| COc1ccc(-n2c3c(c(=O)[nH]c2=O)C(NC(=O)c2ccncc2)(C(F)(F)F)C(=O)N3)cc1 (stereo not shown) | 18.1 |
| O=C(NCCCN1CCOCC1)c1ccc(NS(=O)(=O)c2ccccc2)cc1 | 17 |
| Cl.O=C(CSc1cccc[n+]1[O-])Nc1ccc(N2CCOCC2)cc1 | 6.17 |
| Cc1ccc(/C=N/NC(=O)c2nn(C)cc2Cl)cc1 | -10.9 |
| COCCn1ccc(O)c(Cc2ccccc2)c1=O | 15.5 |
| CCN(CC)S(=O)(=O)c1ccc(C(=O)C(C#N)c2ccccn2)cc1 (stereo not shown) | 12.4 |
| CCOC(=O)[C@H]1[C@H]2COc3ccc(C)cc3[C@@H]2N2C(=O)CN(CC3CCCO3)C(=O)[C@@]12C (stereo partly shown) | 7.72 |
| COc1ccc(NC(=O)CCCc2nnc3n(C)c(=O)c4sccc4n23)cc1 | -14 |
| CCc1ccccc1NC(=O)CN(C)C(=O)COc1ccc(C)nc1[N+](=O)[O-] | -6.74 |
| COc1ccccc1C/C(N)=N/OC(=O)c1cccs1 | 12.1 |
| COc1ccccc1NC(=O)C1=C(C)Nc2nnnn2C1c1ccccc1OC (stereo not shown) | 9.82 |
| CC(C)(CNC(=O)c1cccs1)CNC(=O)c1cccs1 | -3.99 |
| Cn1cccc1/C=N/N1CCN(c2ccccn2)CC1 | -1.71 |
| Cl.c1ccc(CNc2nc(N3CCN(Cc4ccccc4)CC3)nc3ccccc23)cc1 | -65.9 |
| O=C(NC1CCCCC1)c1n[nH]c2c1CCCCC2 | 2.43 |
| Cc1cnc(C(=O)OCC(=O)N2c3ccccc3NC(=O)C2(C)C)cn1 | 10.4 |
| Cc1cc([N+](=O)[O-])cc2ncccc12 | -2.74 |
| CCOc1cc(-n2ncc(C#N)c2N)nc(SC)n1 | 1.05 |
| O=C(Cc1cccc2ccccc12)Nc1ccccc1 | 11.8 |
| COc1ccc2[nH]c(C)c(CCN3C(=O)C4CC=CCC4C3=O)c2c1 (stereo not shown) | 3.08 |
| Nc1nc(SCc2ccc(Cl)cc2Cl)nc2nc3c(cc12)CCCC3 | 4.21 |

— paper PMC4336329 (PLoS ONE, 2015)
